# Measurements published in the supplement of paper PMC8728848.
# Some of the results follow.
# Columns and labels:
# Assay in all cases: glycan array binding signal (z-score within array); higher = stronger binding
# Conditions in all cases: glycan notation: IUPAC condensed, linker removed
# [1] = target: Gal(b1-3)[Fuc(a1-4)]GlcNAc(b1-6)GalNAc
# Method in brief: (§1)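 Negative Z-scores can be read as non-binding. The Z-score is calculated within each array and then averaged across arrays of one protein sequence at different concentrations or buffers and across linkers. Arrays, 3228 in all, were curated from the Consortium for Functional Glycomics database and kept only where the protein sequence was available.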
# [2] = target: Gal(b1-3)[GlcNAc(b1-6)]GalNAc
# Method in brief: as §1
# [3] = target: Gal(b1-3)[Neu5Ac(a2-6)]GalNAc
# Method in brief: as §1
# [4] = target: Gal(b1-3)[Neu5Ac(a2-6)]GlcNAc(b1-4)Gal(b1-4)Glc
# Method in brief: as §1
# [5] = target: Gal(b1-3)[Neu5Ac(b2-6)]GalNAc
# Method in brief: as §1
# Gal(b1-4)Gal = target: Gal(b1-4)Gal
# Method in brief: as §1
# [6] = target: Gal(b1-4)GalNAc(a1-3)[Fuc(a1-2)]Gal(b1-4)GlcNAc
# Method in brief: as §1
# [7] = target: Gal(b1-4)GalNAc(b1-3)[Fuc(a1-2)]Gal(b1-4)GlcNAc
# Method in brief: as §1
# Gal(b1-4)Glc = target: Gal(b1-4)Glc
# Method in brief: as §1
# Gal(b1-4)Glc6S = target: Gal(b1-4)Glc6S
# Method in brief: as §1
# Gal(b1-4)GlcNAc = target: Gal(b1-4)GlcNAc
# Method in brief: as §1
# [8] = target: Gal(b1-4)GlcNAc(a1-6)Gal(b1-4)GlcNAc
# Method in brief: as §1
# Gal(b1-4)GlcNAc(b1-2)Man = target: Gal(b1-4)GlcNAc(b1-2)Man
# Method in brief: as §1
# [9] = target: Gal(b1-4)GlcNAc(b1-2)Man(a1-3)Man(b1-4)GlcNAc(b1-4)GlcNAc
# Method in brief: as §1
# [10] = target: Gal(b1-4)GlcNAc(b1-2)Man(a1-3)[Gal(b1-4)GlcNAc(b1-2)Man(a1-6)]Man(b1-4)GlcNAc(b1-4)GlcNAc
# Method in brief: as §1
# [11] = target: Gal(b1-4)GlcNAc(b1-2)Man(a1-3)[Gal(b1-4)GlcNAc(b1-2)Man(a1-6)]Man(b1-4)GlcNAc(b1-4)[Fuc(a1-6)]GlcNAc
# Method in brief: as §1
# [12] = target: Gal(b1-4)GlcNAc(b1-2)Man(a1-3)[Gal(b1-4)GlcNAc(b1-2)Man(a1-6)][Gal(b1-4)GlcNAc(b1-4)]Man(b1-4)GlcNAc(b1-4)[Fuc(a1-6)]GlcNAc
# Method in brief: as §1
# [13] = target: Gal(b1-4)GlcNAc(b1-2)Man(a1-3)[Gal(b1-4)GlcNAc(b1-2)Man(a1-6)][GlcNAc(b1-4)]Man(b1-4)GlcNAc(b1-4)[Fuc(a1-6)]GlcNAc
# Method in brief: as §1
# [14] = target: Gal(b1-4)GlcNAc(b1-2)Man(a1-3)[GlcNAc(b1-2)Man(a1-6)]Man(b1-4)GlcNAc(b1-4)GlcNAc
# Method in brief: as §1
# [15] = target: Gal(b1-4)GlcNAc(b1-2)Man(a1-3)[GlcNAc(b1-4)][Gal(b1-4)GlcNAc(b1-2)Man(a1-6)]Man(b1-4)GlcNAc(b1-4)GlcNAc
# Method in brief: as §1
# [16] = target: Gal(b1-4)GlcNAc(b1-2)Man(a1-3)[Man(a1-6)]Man(b1-4)GlcNAc(b1-4)GlcNAc
# Method in brief: as §1
# [17] = target: Gal(b1-4)GlcNAc(b1-2)Man(a1-6)Man(b1-4)GlcNAc(b1-4)GlcNAc
# Method in brief: as §1
# [18] = target: Gal(b1-4)GlcNAc(b1-2)Man(a1-6)[GlcNAc(b1-2)Man(a1-3)]Man(b1-4)GlcNAc(b1-4)GlcNAc
# Method in brief: as §1
# [19] = target: Gal(b1-4)GlcNAc(b1-2)Man(a1-6)[Man(a1-3)]Man(b1-4)GlcNAc(b1-4)GlcNAc
# Method in brief: as §1
# [20] = target: Gal(b1-4)GlcNAc(b1-2)[Gal(b1-4)GlcNAc(b1-4)]Man(a1-3)[Gal(b1-4)GlcNAc(b1-2)Man(a1-6)]Man(b1-4)GlcNAc(b1-4)GlcNAc
# Method in brief: as §1
# [21] = target: Gal(b1-4)GlcNAc(b1-2)[Gal(b1-4)GlcNAc(b1-4)]Man(a1-3)[Gal(b1-4)GlcNAc(b1-2)[Gal(b1-4)GlcNAc(b1-6)]Man(a1-6)]Man(b1-4)GlcNAc(b1-4)GlcNAc
# Method in brief: as §1
# [22] = target: Gal(b1-4)GlcNAc(b1-2)[Gal(b1-4)GlcNAc(b1-4)]Man(a1-3)[GlcNAc(b1-4)][Gal(b1-4)GlcNAc(b1-2)Man(a1-6)]Man(b1-4)GlcNAc(b1-4)GlcNAc
# Method in brief: as §1
# [23] = target: Gal(b1-4)GlcNAc(b1-2)[Gal(b1-4)GlcNAc(b1-4)]Man(a1-3)[GlcNAc(b1-4)][Gal(b1-4)GlcNAc(b1-2)[Gal(b1-4)GlcNAc(b1-6)]Man(a1-6)]Man(b1-4)GlcNAc(b1-4)GlcNAc
# Method in brief: as §1
# [24] = target: Gal(b1-4)GlcNAc(b1-2)[Gal(b1-4)GlcNAc(b1-6)]Man(a1-6)[Gal(b1-4)GlcNAc(b1-2)Man(a1-3)]Man(b1-4)GlcNAc(b1-4)GlcNAc
# Method in brief: as §1
# [25] = target: Gal(b1-4)GlcNAc(b1-2)[Gal(b1-4)GlcNAc(b1-6)]Man(a1-6)[Gal(b1-4)GlcNAc(b1-2)Man(a1-3)]Man(b1-4)GlcNAc(b1-4)[Fuc(a1-6)]GlcNAc
# Method in brief: as §1
# [26] = target: Gal(b1-4)GlcNAc(b1-2)[Gal(b1-4)GlcNAc(b1-6)]Man(a1-6)[GlcNAc(b1-4)][Gal(b1-4)GlcNAc(b1-2)Man(a1-3)]Man(b1-4)GlcNAc(b1-4)GlcNAc
# Method in brief: as §1
# [27] = target: Gal(b1-4)GlcNAc(b1-2)[Gal(b1-4)GlcNAc(b1-6)]Man(a1-6)[GlcNAc(b1-4)][Gal(b1-4)GlcNAc(b1-2)[Gal(b1-4)GlcNAc(b1-4)]Man(a1-3)]Man(b1-4)GlcNAc(b1-4)[Fuc(a1-6)]GlcNAc
# Method in brief: as §1
# [28] = target: Gal(b1-4)GlcNAc(b1-3)Gal(b1-3)GalNAc
# Method in brief: as §1
# [29] = target: Gal(b1-4)GlcNAc(b1-3)Gal(b1-3)GlcNAc
# Method in brief: as §1
# [30] = target: Gal(b1-4)GlcNAc(b1-3)Gal(b1-4)Glc
# Method in brief: as §1
# [31] = target: Gal(b1-4)GlcNAc(b1-3)Gal(b1-4)GlcNAc
# Method in brief: as §1
# [32] = target: Gal(b1-4)GlcNAc(b1-3)Gal(b1-4)GlcNAc(b1-2)Man(a1-3)[Gal(b1-4)GlcNAc(b1-3)Gal(b1-4)GlcNAc(b1-2)Man(a1-6)]Man(b1-4)GlcNAc(b1-4)GlcNAc
# Method in brief: as §1
# [33] = target: Gal(b1-4)GlcNAc(b1-3)Gal(b1-4)GlcNAc(b1-2)Man(a1-3)[Gal(b1-4)GlcNAc(b1-3)Gal(b1-4)GlcNAc(b1-2)Man(a1-6)]Man(b1-4)GlcNAc(b1-4)[Fuc(a1-6)]GlcNAc
# Method in brief: as §1
binder,measurement,setting,value
LecRKVI.2 (protein) RTTTNFAFRGFNGNQSKIRIEGAAMIKPDGLLRLTDRKSNVTGTAFYHKPVRLLNRNSTNVTIRSFSTSFVFVIIPSSSSNKGFGFTFTLSPTPYRLNAGSAQYLGVFNKENNGDPRNHVFAVEFDTVQGSRDDNTDRIGNDIGLNYNSRTSDLQEPVVYYNNDDHNKKEDFQLESGNPIQALLEYDGATQMLNVTVYPARLGFKPTKPLISQHVPKLLEIVQEEMYVGFTASTGKGQSSAHYVMGWSFSSGGERPIADVLILSELPPPPPNKAKKEGLNS,glycan array binding signal (z-score),[1],0.164
same,glycan array binding signal (z-score),[2],-0.332
same,glycan array binding signal (z-score),[3],-0.409
same,glycan array binding signal (z-score),[4],-0.28
same,glycan array binding signal (z-score),[5],-0.225
same,glycan array binding signal (z-score),Gal(b1-4)Gal,-0.396
same,glycan array binding signal (z-score),[6],-0.303
same,glycan array binding signal (z-score),[7],-0.29
same,glycan array binding signal (z-score),Gal(b1-4)Glc,-0.37
same,glycan array binding signal (z-score),Gal(b1-4)Glc6S,-0.338
same,glycan array binding signal (z-score),Gal(b1-4)GlcNAc,-0.176
same,glycan array binding signal (z-score),[8],0.988
same,glycan array binding signal (z-score),Gal(b1-4)GlcNAc(b1-2)Man,-0.407
same,glycan array binding signal (z-score),[9],0.309
same,glycan array binding signal (z-score),[10],0.352
same,glycan array binding signal (z-score),[11],-0.34
same,glycan array binding signal (z-score),[12],-0.326
same,glycan array binding signal (z-score),[13],-0.509
same,glycan array binding signal (z-score),[14],-0.444
same,glycan array binding signal (z-score),[15],-0.25
same,glycan array binding signal (z-score),[16],0.014
same,glycan array binding signal (z-score),[17],0.432
same,glycan array binding signal (z-score),[18],-0.315
same,glycan array binding signal (z-score),[19],1.15
same,glycan array binding signal (z-score),[20],0.091
same,glycan array binding signal (z-score),[21],0.071
same,glycan array binding signal (z-score),[22],-0.319
same,glycan array binding signal (z-score),[23],-0.371
same,glycan array binding signal (z-score),[24],0.451
same,glycan array binding signal (z-score),[25],0.865
same,glycan array binding signal (z-score),[26],0.506
same,glycan array binding signal (z-score),[27],-0.077
same,glycan array binding signal (z-score),[28],-0.047
same,glycan array binding signal (z-score),[29],-0.326
same,glycan array binding signal (z-score),[30],-0.296
same,glycan array binding signal (z-score),[31],-0.308
same,glycan array binding signal (z-score),[32],1.09
same,glycan array binding signal (z-score),[33],3.44
